{"source": "PubChem BioAssay AID603", "about": "(National Center for Advancing Translational Sciences (NCATS), 2007)", "note": "“And” between values parts separate entries of the source, which are not always exact repeats. Equal values may be shown once. About 180 (0.25%) of roughly 71,000 compounds were called active. The shares of active, inactive and inconclusive entries below differ from those in the screen. Calls follow the shape of the dose curve; as a rule, active = well fitted curve in the direction sought with a large enough effect; inconclusive = small, poorly fitted or top-dose-only effect; inactive = flat fitted curve, though single readings scatter. A potency beside an inconclusive call is a rough fit, not a confirmed value. % is scaled to controls: 0 for no effect and ±100 for the full control effect; potency is read from the fitted curve at half-maximal effect.", "data": [{"test_system": "DNA polymerase III holoenzyme (E. coli)", "experiment": "qHTS Assay for Inhibitors of DNA Polymerase III Holoenzyme System", "details": "reconstituted DNA polymerase III holoenzyme replication, biochemical; series mostly up to 57.1 µM; activity change, negative = inhibition: at the top concentration", "summary_of_the_method": "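Reconstituted *E. coli* holoenzyme (0.35 nM Pol III, 1 nM beta, 154 nM SSB, 2 nM primase) was preincubated with compound for 15 min at RT. Synthesis on 1.4 nM ssM13Gori ran 35 min, then was stopped with PicoGreen/EDTA and read as dsDNA fluorescence.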", "values": [{"smiles": "COc1ccc(-n2c(C)cc(C(=O)Cn3c(NCCO)nc4ccccc43)c2C)cc1", "Potency": "inconclusive: 6.31 µM"}, {"smiles": "O=C(O)c1cc(=O)c2ccc(Cl)cc2[nH]1", "Potency": "inactive"}, {"smiles": "O=C(NCCSc1c[nH]c2ccccc12)c1ccc(Br)o1", "activity change, negative = inhibition": "inactive: -4.3%"}, {"smiles": "O=C1CC(/C=C/c2ccco2)=Nc2ccccc2N1", "Potency": "inconclusive: 31.6 µM"}, {"smiles": "CC(C)(C)n1nnnc1C(c1ccccc1F)N1CCN(C2CCCC2)CC1", "note": "(configuration not stated)", "Potency": "inconclusive: 39.8 µM"}, {"smiles": "Nc1nc(N)c2[nH]cnc2n1", "note": "(tested in a mixture with another compound)", "activity change, negative = inhibition": "inactive: 1.9% [at 11.4 µM]"}, {"smiles": "[N-]=[N+]=CC(=O)C(Cc1ccccc1)N1C(=O)c2ccccc2C1=O", "note": "(configuration not stated)", "Potency": "inconclusive: 5.01 µM"}, {"smiles": "O=C(CSc1ncnc2ccccc12)NCc1ccco1", "Potency": "inconclusive: 6.31 µM"}, {"smiles": "O=C(Nc1nccs1)c1ccc(S(=O)(=O)NCc2cccs2)cc1", "activity change, negative = inhibition": "inactive: -4.2%"}, {"smiles": "CN(C)CCOc1nc(-c2ccccc2)nc2c1oc1ccccc12", "Potency": "active: 25.1 µM"}, {"smiles": "Cn1c(Cc2ccccc2)nnc1SCC(=O)N1CCOCC1", "Potency": "inconclusive: 6.31 µM"}, {"smiles": "COc1ccc(CN(CC(=O)NCC2CCCO2)C(=O)CCC(=O)Nc2cc(C)ccn2)cc1", "note": "(configuration not stated)", "Potency": "inconclusive: 6.31 µM"}, {"smiles": "c1ccc(CNc2ncnc3ccccc23)cc1", "Potency": "inconclusive: 6.31 µM"}, {"smiles": "CCOc1ccccc1OCCCC(=O)Nc1ccc(OC)nc1", "Potency": "inconclusive: 5.01 µM"}, {"smiles": "CC(=O)C1=C(C)NC(SCC(=O)c2ccc(Cl)cc2Cl)=C(C#N)C1c1ccco1", "note": "(configuration not stated)", "activity change, negative = inhibition": "inactive: -0.2%"}, {"smiles": "COC(=O)c1ccc(CSc2nc(C(F)(F)F)c3c(c2C#N)CCC3)o1", "activity change, negative = inhibition": "inactive: -8.5%"}, {"smiles": "O=C(c1cnccn1)N1CCc2ccccc21", "Potency": "inconclusive: 6.31 µM"}, {"smiles": "COc1cccc(C(=O)CN2C(=O)C(C)(C)Oc3ccc(C(=O)N4CCCCCC4)cc32)c1", "Potency": "inconclusive: 5.01 µM"}, {"smiles": "CC(=O)N1CCN(c2ccccc2NC(=O)COc2ccc(Cl)cc2Cl)CC1", "activity change, negative = inhibition": "inactive: -6.5%"}, {"smiles": "c1coc(C2Nc3cccc4cccc(c34)N2)c1", "Potency": "active: 3.98 µM"}, {"smiles": "CNc1cccccc1=S", "Potency": "inconclusive: 39.8 µM"}, {"smiles": "CCN(CC(=O)Nc1ccc2c(c1)OCCO2)CC(=O)Nc1cc(C)on1", "Potency": "inconclusive: 6.31 µM"}, {"smiles": "CCS(=O)(=O)c1ccc2oc(Nc3ccccc3C)nc2c1", "Potency": "inconclusive: 6.31 µM"}, {"smiles": "O=S(=O)(c1ccc2nc(-c3ccco3)c(-c3ccco3)nc2c1)N1CCOCC1", "Potency": "inconclusive: 25.1 µM"}, {"smiles": "c1ccc(-c2cnc(CSc3ncnc4sccc34)o2)cc1", "Potency": "inconclusive: 6.31 µM"}, {"smiles": "Nc1c(C(=O)c2ccc(Br)s2)oc2ccccc12", "activity change, negative = inhibition": "inactive: 2%"}, {"smiles": "CCOc1cc(C)nc(N2CCCC(C(=O)NCc3ccccc3F)C2)n1", "note": "(configuration not stated)", "activity change, negative = inhibition": "inactive: -1.9%"}, {"smiles": "CCN(CC)CCC[C@H](C)Nc1c2ccc(Cl)cc2nc2ccc(OC)cc12", "Potency": "active: 31.6 µM and inconclusive: 15.8 µM"}, {"smiles": "Cc1cc(-c2nc3c4c5c(sc4[nH]c(=O)n3n2)CCC5)c(C)o1", "Potency": "inconclusive: 15.8 µM"}, {"smiles": "C=CCN1CC(O)=C(c2ccccc2)C1=N", "Potency": "inconclusive: 6.31 µM"}, {"smiles": "O=C(Nc1ccc(C(=O)Nc2ccc(C(=O)Nc3ccc(S(=O)(=O)O)c4cc(S(=O)(=O)O)cc(S(=O)(=O)O)c34)cc2)cc1)Nc1ccc(C(=O)Nc2ccc(C(=O)Nc3ccc(S(=O)(=O)O)c4cc(S(=O)(=O)O)cc(S(=O)(=O)O)c34)cc2)cc1", "Potency": "active: 31.6 µM"}, {"smiles": "c1ccc(-n2c(SCC3CCCCO3)nnc2-c2cccs2)cc1", "note": "(configuration not stated)", "Potency": "inconclusive: 6.31 µM"}, {"smiles": "CC(=O)N1CCN(C2=Nc3cccc4cccc2c34)CC1", "Potency": "inconclusive: 6.31 µM"}, {"smiles": "Cc1cc(N)c2cc(NC(=O)Nc3ccc4nc(C)cc(N)c4c3)ccc2n1", "Potency": "active: 3.98 µM"}, {"smiles": "COc1ccccc1N1CCN(c2nc(-c3ccccc3)cc(C(F)(F)F)n2)CC1", "activity change, negative = inhibition": "inactive: 2.3%"}, {"smiles": "COCCCN(C(=O)c1cccnc1SC)c1c(N)n(Cc2ccccc2)c(=O)[nH]c1=O", "Potency": "inconclusive: 6.31 µM"}, {"smiles": "Cc1ccccc1OCC(O)Cn1c(NCc2ccco2)nc2c1c(=O)[nH]c(=O)n2C", "note": "(configuration not stated)", "Potency": "inconclusive: 39.8 µM"}, {"smiles": "CC1CCN(S(=O)(=O)c2ccc(S(=O)(=O)N3CCN4CCCC4C3)cc2)CC1", "note": "(configuration not stated)", "Potency": "inconclusive: 39.8 µM"}, {"smiles": "COc1cc(-c2ccc(N=Nc3ccc4c(S(=O)(=O)O)cc(S(=O)(=O)O)c(N)c4c3O)c(OC)c2)ccc1N=Nc1ccc2c(S(=O)(=O)O)cc(S(=O)(=O)O)c(N)c2c1O", "Potency": "active: 10 µM and active: 2.51 µM"}, {"smiles": "CCc1nc(Nc2ccncc2)c2oc3ccccc3c2n1", "Potency": "inconclusive: 31.6 µM"}, {"smiles": "Cc1cc(N)c2ccccc2[n+]1CCCCCCCCCCCCCC[n+]1c(C)cc(N)c2ccccc21", "Potency": "inconclusive: 39.8 µM"}, {"smiles": "CCCCCCCCCCCCCCCCCCNC(=O)OC[C@@H](COP(=O)([O-])OCC[n+]1ccsc1)OC", "activity change, negative = inhibition": "inactive: -3.3%"}, {"smiles": "CN(C)c1ccc2nc3ccc(=[N+](C)C)cc-3sc2c1", "Potency": "active: 31.6 µM"}, {"smiles": "Fc1ccc(-c2nn3c(C4COc5ccccc5O4)nnc3s2)cc1", "note": "(configuration not stated)", "activity change, negative = inhibition": "inactive: -3.5%"}, {"smiles": "COc1ccc(OC)c(C(=O)COC(=O)C2CC3CCCC(C2)C3=O)c1", "note": "(configuration not stated)", "activity change, negative = inhibition": "inactive: 9%"}, {"smiles": "Nc1nnc(C(=O)c2ccccc2N)s1", "Potency": "inconclusive: 39.8 µM"}, {"smiles": "O=C(O)c1cccc(N2CCCCS2(=O)=O)c1", "Potency": "inconclusive: 6.31 µM"}, {"smiles": "O=C(O)c1cccc(NC(=O)c2cccc(S(=O)(=O)N3CCCCC3)c2)c1", "activity change, negative = inhibition": "inactive: -2.4%"}, {"smiles": "O=C(NCc1ccco1)C(c1ccccc1)N(CC1CCCO1)C(=O)Cn1nnc2ccccc21", "note": "(configuration not stated)", "Potency": "inconclusive: 6.31 µM"}, {"smiles": "Cc1sc2nc(SCC(=O)c3cc(C)n(CC4CCCO4)c3C)n(C(C)C)c(=O)c2c1C", "note": "(configuration not stated)", "Potency": "inconclusive: 5.01 µM"}, {"smiles": "O=C(c1oc2ccccc2c1CSCc1ccccc1)N1CCN(c2ncccn2)CC1", "Potency": "inconclusive: 6.31 µM"}, {"smiles": "O=C(OCc1cccs1)c1ccccc1NS(=O)(=O)c1ccc2c(c1)OCCO2", "Potency": "inconclusive: 6.31 µM"}, {"smiles": "CCC=O", "activity change, negative = inhibition": "inactive: -1.7%"}, {"smiles": "O=c1cc(-c2ccc(O)c(O)c2)oc2cc(O)cc(O)c12", "Potency": "inconclusive: 3.98 µM"}, {"smiles": "Cc1cc2cc(C)c3nnc(SCC(=O)NCc4ccco4)n3c2cc1C", "Potency": "inconclusive: 7.94 µM"}, {"smiles": "COc1ccc(-c2nc3cnc(N(C)C)nc3n(Cc3ccc(F)cc3)c2=O)cc1", "activity change, negative = inhibition": "inactive: -9.6%"}, {"smiles": "CC(=O)N1CCN(c2ccc(NC(=O)c3ccc(C(C)(C)C)cc3)cc2)CC1", "activity change, negative = inhibition": "inactive: -7%"}, {"smiles": "COc1cccc(-c2nccc(NCc3ccc(OC)cc3OC)n2)c1", "activity change, negative = inhibition": "inactive: 2%"}, {"smiles": "CCCC(=O)Nc1ccc(S(=O)(=O)Nc2cc(C)nc(C)n2)cc1", "Potency": "inconclusive: 6.31 µM"}, {"smiles": "N#CC1=C(N)SC(N)=C(C#N)C1c1ccoc1", "Potency": "inconclusive: 39.8 µM"}, {"smiles": "CCCCn1c(=O)n(CC(=O)Nc2ccc(C)c(Cl)c2)c(=O)c2c1ncn2Cc1ccco1", "Potency": "inconclusive: 6.31 µM"}, {"smiles": "Cc1c(C(=O)O)c(O)cc2c1C(=O)c1c(O)c([C@@H]3O[C@H](CO)[C@@H](O)[C@H](O)[C@@H]3O)c(O)c(O)c1C2=O", "Potency": "inconclusive: 39.8 µM"}, {"smiles": "N#C/C(=C\\c1ccc(O)c(O)c1)C(=O)c1ccc(O)c(O)c1", "Potency": "inconclusive: 1.58 µM"}, {"smiles": "Cn1c(C(=O)NCCCN2CCOCC2)cc2c(=O)n(C)c3ccccc3c21", "Potency": "inconclusive: 25.1 µM"}, {"smiles": "O=C1CSC(c2nn(-c3ccccc3)cc2-c2cc3ccccc3oc2=O)N1Cc1ccco1", "note": "(configuration not stated)", "Potency": "inconclusive: 6.31 µM"}, {"smiles": "Cc1ccccc1-n1c(C)nnc1SCC(=O)NCC1CCCO1", "note": "(configuration not stated)", "Potency": "inconclusive: 7.94 µM"}, {"smiles": "CCOC(=O)c1c(C)[nH]c(C)c1C(=O)COc1ccc(NC(=O)c2ccco2)cc1", "Potency": "inconclusive: 6.31 µM"}, {"smiles": "Cc1c(N(C)CS(=O)(=O)O)c(=O)n(-c2ccccc2)n1C", "activity change, negative = inhibition": "inactive: -4.9% [at 25.6 µM]"}, {"smiles": "Cc1cc(C(=O)CSc2nnnn2C)c(C)n1-c1ccc2c(c1)OCCO2", "activity change, negative = inhibition": "inactive: 1.1%"}, {"smiles": "CCN(CC)CCNC(=O)c1cc2c(-c3ccc(Cl)cc3)nn(C)c2s1", "Potency": "inconclusive: 25.1 µM"}, {"smiles": "Cc1ccc(C(=O)Nc2ccc(N3CCOCC3)cc2)cc1", "activity change, negative = inhibition": "inactive: -3.9%"}, {"smiles": "Nc1cc(C2CCCC2)nn1-c1ccccc1", "Potency": "inconclusive: 6.31 µM"}, {"smiles": "CC(=O)[C@@]1(O)Cc2c(O)c3c(c(O)c2[C@H](O[C@H]2C[C@H](N)[C@H](O)[C@H](C)O2)C1)C(=O)c1ccccc1C3=O", "Potency": "active: 3.98 µM"}, {"smiles": "CS(=O)(=O)c1ccc2nc(NC(=O)C3COc4ccccc4O3)sc2c1", "note": "(configuration not stated)", "activity change, negative = inhibition": "inactive: -3.5%"}, {"smiles": "Cc1nc2cnc(N3CCNCC3)nc2n(-c2ccccc2)c1=O", "activity change, negative = inhibition": "inactive: -11.3%"}, {"smiles": "CC(C)(C)c1[nH]nc2c1C(c1ccccc1OC(=O)N1CCOCC1)C(C#N)=C(N)O2", "note": "(configuration not stated)", "Potency": "inconclusive: 39.8 µM"}, {"smiles": "O=C(O)c1c(Br)c(Br)c(Br)c(Br)c1C1c2ccc(O)cc2Oc2cc(O)ccc21", "Potency": "active: 0.0251 µM"}, {"smiles": "Nc1nc(-c2ccco2)c(-c2ccco2)s1", "Potency": "inconclusive: 20 µM"}, {"smiles": "Cc1cccc(NC(=O)c2cnc3sccn3c2=O)c1", "activity change, negative = inhibition": "inactive: -5%"}, {"smiles": "Cc1ccc(-c2nn3c(C)nnc3s2)cc1NC(=O)c1ccc(-c2ccc(Cl)cc2Cl)o1", "Potency": "inconclusive: 10 µM"}, {"smiles": "N#CC(C(=O)OC1CCCCC1)c1nc2ccccc2nc1N1CCOCC1", "note": "(configuration not stated)", "activity change, negative = inhibition": "inactive: 10.9%"}, {"smiles": "CCOC(=O)c1sc(NC(=O)c2cc3c(C)nn(-c4ccccc4)c3s2)nc1C", "Potency": "inconclusive: 6.31 µM"}, {"smiles": "CCOC(=O)CNC(=O)Nc1cc(C(C)(C)C)nn1-c1ccccc1", "Potency": "inconclusive: 6.31 µM"}, {"smiles": "Cc1cn2nc(N)c3ccccc3c2n1", "Potency": "inconclusive: 6.31 µM"}, {"smiles": "Cc1cc(C(=O)COC(=O)CN(C)S(=O)(=O)c2ccc(Cl)cc2)c(C)n1CC1CCCO1", "note": "(configuration not stated)", "Potency": "inconclusive: 6.31 µM"}, {"smiles": "O=C(O)c1ccc(Cl)c2c1C1C=CCC1C(c1ccccn1)N2", "note": "(configuration not stated)", "Potency": "inconclusive: 31.6 µM"}, {"smiles": "Cc1nc2c(c(=O)n1CCC1=CCCCC1)c1nc3ccccc3nc1n2/N=C/c1ccco1", "activity change, negative = inhibition": "inactive: -6.8%"}]}]}
